Test results from PubChem BioAssay AID1346428 (National Center for Advancing Translational Sciences (NCATS), 2018).
“And” between values parts separate entries of the source, which are not always exact repeats. Identical values can stand only once. Among all 48,000 compounds or so, about 1,200 (2.5%) were called active. Another 2% or so got no clear call; they are omitted.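 Rule for the calls: active = activation of at least 60% and not above a set upper limit (about 1 call in 100 departs from these limits); inconclusive = activation of 40% to 60%, or above that upper limit; inactive = activation under 40%.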 This is one part of the list.
Note: 0% is about no effect.

These compounds were tested against Probable G-protein coupled receptor 32 (Homo sapiens) (UniProt O75388) (assay: qHTS for Agonists of Human Resolvin D1 Receptor DRV1). Conditions: CHO-K1 GPR32 beta-arrestin PathHunter luminescence, 90 min; at 76.9 µM; active compounds read high; zero percent set by DMSO-only wells.
Sequence of UniProt O75388 (O75388 whole entry, looked up): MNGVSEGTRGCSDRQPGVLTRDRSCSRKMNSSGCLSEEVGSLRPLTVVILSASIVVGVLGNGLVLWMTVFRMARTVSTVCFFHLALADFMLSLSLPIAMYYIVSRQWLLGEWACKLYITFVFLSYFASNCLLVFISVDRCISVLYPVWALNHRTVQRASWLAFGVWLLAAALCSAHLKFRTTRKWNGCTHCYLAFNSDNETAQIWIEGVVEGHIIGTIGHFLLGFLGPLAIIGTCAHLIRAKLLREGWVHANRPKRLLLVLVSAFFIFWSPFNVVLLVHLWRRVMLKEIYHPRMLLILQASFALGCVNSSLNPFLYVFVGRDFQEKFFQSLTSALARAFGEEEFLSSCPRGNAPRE
Summary of the method: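 PathHunter beta-arrestin recruitment in CHO-K1 cells stably expressing ProLink-tagged GPR32. Cells were exposed to compound for 90 min at 37 C, then chemiluminescence was read after 1 h detection at ambient temperature; DMSO served as basal control.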
In the case of `CCOC(=O)c1c(C)[nH]c(CCC(=O)NCc2ccc(OC)c(OC)c2)c1C`, the activation is reported as inactive: -17.8%. In the case of `CCn1c2ccccc2c2nnc(N3CCN(c4cccc(Cl)c4)CC3)nc21`, the activation is reported as inactive: -22%. In the case of `COc1ccc(S(=O)(=O)N2CCC(N3CCN(Cc4ccccc4)C(=O)C3=O)CC2)cc1`, the activation is reported as inactive: -7.63%. In the case of `Cc1nc(C2CCCCC2)c(-c2ccc(S(N)(=O)=O)c(F)c2)o1`, the activation is reported as inactive: 1.57%. With `Cc1ccc(N2CCn3c2nc2c3c(=O)n(C/C=C/c3ccccc3)c(=O)n2C)cc1C` the activation was inactive: -7.46%. `CCc1ccc(NC(=O)CCc2c(C)nc3nc(-c4cc(OC)cc(OC)c4)nn3c2C)cc1` was tested, and the activation was inactive: -1.78%. In the case of `COCCCNC(=O)Cn1c(=O)n(-c2cccc(C)c2)c(=O)c2c1c1cc(C)ccc1n2C`, the activation is reported as inactive: -10.3%. In the case of `COc1ccc(CNC(=O)Cc2c(C)c3cc4c(C)coc4cc3oc2=O)cc1`, the activation is reported as inactive: -5.36%. `Cc1cc(NS(=O)(=O)c2ccc(N)cc2)nc(C)n1` was tested, and the activation was inactive: 6.41%. In the case of `Cc1ccc(CN2CCSc3ccc(C(=O)NCc4ccc(OC(C)C)cc4)cc32)cc1`, the activation is reported as inactive: -35%. For `COc1ccc(-c2noc(CCCC(=O)Nc3cccc(Cl)c3C)n2)cc1`, the activation was inactive: 6.59%. For `COc1ccccc1-c1c(C)nn2c(-c3ccccc3)cc(-c3ccccc3)nc12`, the activation was inactive: -11.1%. `CCCCCCCCCCCCCCCCOP(=O)([O-])OCC[N+](C)(C)C` was tested, and the activation was active: 93.5%. For `CCOc1ccc(C2=NC(c3ccncc3)=Nc3ccc(C)cc3N2)cc1OCC`, the activation was inactive: -8.14%. `Cc1ccc(OCCn2cc(C(=O)c3cccs3)c3ccccc32)cc1` was tested, and the activation was inactive: -30.6%. `COc1cccc(/C=C/c2onc(C)c2S(=O)(=O)N2CCC(C(=O)N3CCCCC3)CC2)c1` was tested, and the activation was inactive: -12%. In the case of `COc1ccc(C2CC(=O)c3c([nH]c(C(=O)OCc4ccccc4)c3C)C2)cc1` (configuration not stated), the activation is reported as inactive: 30.5%. `COCc1cc(C)nc2sc(C(=O)Nc3ccccc3O)c(N)c12` was tested, and the activation was inactive: -15.9%. In the case of `COc1ccc(N(Cc2ccccc2)C(=O)c2nc(S(C)(=O)=O)ncc2Cl)cc1`, the activation is reported as inactive: -7.64%. `Cc1ccccc1NC(=O)c1cc2c(-c3ccccc3)nn(-c3ccccc3)c2s1` was tested, and the activation was inactive: 10.6%. With `COc1ccccc1NC(=O)C1=C(C)Nc2c(C(=O)Nc3ccc(C)cc3)cnn2C1c1cccc(OC)c1OC` (configuration not stated) the activation was inactive: -1.42%. For `COc1ccc(CNC(=O)Cn2c(=O)nc(-c3ccccc3)c3cc(Cl)ccc32)cc1OC`, the activation was inactive: -15.6%. For `CCCSCCCNC(=O)C1CCN(C(=O)c2cnn(-c3ccccc3)c2-n2cccc2)CC1`, the activation was inactive: -15.4%. In the case of `COc1cccc(C(=O)Nc2ccc(-n3nncc3-c3ccccc3)cc2)c1OC`, the activation is reported as inactive: -16.6%. `Cc1cccc(N2CCN(C(=O)Cn3nc(C)c4sc5ccccc5c4c3=O)CC2)c1C` was tested, and the activation was inactive: -4.14%. In the case of `Cc1ccsc1/C=C/C1=NCCCN1C`, the activation is reported as inactive: 2.55%. In the case of `O=C(COc1ccc(Cl)cc1)N(Cc1ccco1)Cc1ccco1`, the activation is reported as inactive: -4.23%. `COc1ccc(OC)c(NC(=O)CSC2=Nc3ccccc3C3=NC(CCC(=O)NCc4ccccc4)C(=O)N23)c1` (configuration not stated) was tested, and the activation was inactive: -3.95%. `Cc1nc2ccn(Cc3cccs3)c(=O)c2cc1C(=O)NCc1ccc(Br)cc1` was tested, and the activation was inactive: -15%. With `COc1ccccc1CNC(=O)CCC(=O)N1CC(C)Sc2ccccc21` (configuration not stated) the activation was inactive: -21.2%. In the case of `Cc1c(C(=O)N(C)C)sc2c1c(=O)n(-c1ccc(Cl)c(Cl)c1)c(=O)n2CC(=O)C(C)(C)C`, the activation is reported as inactive: -6.67%. For `COc1ccc(C(=O)Nc2cccc(-c3cn4ccsc4n3)c2)c(OC)c1`, the activation was inactive: -12.2%. `Cc1cccc(N2CCN(C(=O)CN3C(=O)COc4ccc(S(=O)(=O)N5CCC(C)CC5)cc43)CC2)c1C` was tested, and the activation was inactive: -6.86%. `CCc1nn(CC(=O)N2CCC(C)CC2)c(=O)c2cc3occc3n12` was tested, and the activation was inactive: -7.72%. `CCCN(c1ccc(C(C)C)cc1)S(=O)(=O)c1ccc2c(c1)n(C)c(=O)c(=O)n2C` was tested, and the activation was inactive: -1.95%. For `Cc1csc2nc(COC(=O)c3cccc(NC(=O)c4cccc(Cl)c4)c3)cc(=O)n12`, the activation was inactive: -5.29%. In the case of `Cc1ccc(NC(=O)CSc2nc3ccccc3n2CC(=O)N2CCC(C)CC2)cc1C`, the activation is reported as inactive: 5.38%. With `CCOc1ccc(N(CC(=O)Nc2cc(OC)cc(OC)c2)S(=O)(=O)c2c(C)[nH]c(=O)[nH]c2=O)cc1` the activation was inactive: -14.9%. For `CCC(=O)Oc1cc(C(C)(C)C)cc2cc(-c3nc(-c4ccc(OC)cc4OC)no3)c(=O)oc12`, the activation was inactive: -0.602%. With `Cc1ccc(-n2nc3c(N4CCC(C(=O)NC5CCC(C)CC5)CC4)nnc(C)c3c2C)cc1` (configuration not stated) the activation was inactive: 14.7%. `Cc1ccc2sc(N(Cc3cccnc3)C(=O)Cc3ccccc3)nc2c1C` was tested, and the activation was inactive: -15.3%. In the case of `CC1=C(C(N)=O)C(c2cccc(O)c2)n2ncnc2N1` (configuration not stated), the activation is reported as active: 60.7%. With `O=C(c1cccs1)c1cn(CCOc2ccc(Cl)cc2)c2ccccc12` the activation was inactive: -10.4%. With `Cc1ccc(C(=O)c2cn(Cc3ccccc3F)c3cc4c(cc3c2=O)OCCO4)cc1` the activation was inactive: 27.1%. `C[N+](C)(C)CCOC(=O)CCC(=O)OCC[N+](C)(C)C` was tested, and the activation was inactive: 0.499% and inactive: 1.01%. With `CCOc1ccccc1NC(=O)C1CCC(CNS(=O)(=O)c2ccc3c(c2)CCCC(=O)N3)CC1` (configuration not stated) the activation was inactive: -16.9%. For `Cc1ccc(C)c(NC(=O)CN(C)S(=O)(=O)c2cccc3cccnc23)c1`, the activation was inactive: -4.74%. In the case of `Cc1ccc(Cl)cc1N1CCN(CCCNC(=O)Cn2ncc3c([nH]c4ccccc43)c2=O)CC1`, the activation is reported as inactive: -7.97%. For `Cc1ccc(C(=O)Nc2ccccc2C(=O)OCc2cc(=O)n3nc(C(C)C)sc3n2)cc1`, the activation was inactive: -9.73%. `COc1ccc(CC(=O)NCCS(=O)(=O)N2CCN(c3ccccc3F)CC2)cc1OC` was tested, and the activation was inactive: -17.6%. `Cc1ccc(C)c(NC(=O)CSc2nc(-c3ccccc3)c(C#N)c(=O)[nH]2)c1` was tested, and the activation was inactive: 27.9%. In the case of `CCOc1ccc(CCNC(=O)c2cccc(Nc3nc4ccccc4nc3-n3nc(C)cc3C)c2)cc1OCC`, the activation is reported as inactive: -11.5%.
